Experimental data: PubChem BioAssay AID1476 (National Center for Advancing Translational Sciences (NCATS), 2009)
The campaign covered roughly 200,000 compounds. About 4,500 (2.2%) were called active. The inconclusive results got no clear call from the source; some entries with a clear call stand among them for comparison. Calls come from the whole dose curve; as a rule, active = well fitted inhibition curve with a large enough effect; inconclusive = small, poorly fitted or top-dose-only effect, or effect the other way; inactive = flat fitted curve, though single readings scatter. Potencies of inconclusive entries are doubtful fits and often do not repeat.

Target: Cruzipain (Trypanosoma cruzi) (UniProt P25779)
Sequence of UniProt P25779 (P25779 whole entry, looked up): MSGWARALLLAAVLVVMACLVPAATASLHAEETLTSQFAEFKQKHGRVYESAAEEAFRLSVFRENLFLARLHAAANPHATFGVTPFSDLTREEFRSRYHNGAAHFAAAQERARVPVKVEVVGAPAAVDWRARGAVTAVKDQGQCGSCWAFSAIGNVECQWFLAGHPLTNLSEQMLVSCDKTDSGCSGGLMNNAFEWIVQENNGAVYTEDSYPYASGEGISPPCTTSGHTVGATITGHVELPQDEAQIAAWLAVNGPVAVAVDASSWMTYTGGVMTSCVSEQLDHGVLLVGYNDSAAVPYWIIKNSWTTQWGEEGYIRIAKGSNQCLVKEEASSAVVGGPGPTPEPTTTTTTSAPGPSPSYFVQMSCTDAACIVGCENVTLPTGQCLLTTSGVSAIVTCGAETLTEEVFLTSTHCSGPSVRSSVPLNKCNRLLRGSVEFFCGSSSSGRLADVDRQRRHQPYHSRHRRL
Experiment: qHTS Assay for Promiscuous and Specific Inhibitors of Cruzain (without detergent); note: nearly all actives have a fitted effect of over 40% in size;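 for max response, negative = inhibition: plate controls were enzyme without inhibitor for no effect and buffer without enzyme for full effect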
Details: purified cruzain, Z-FR-AMC fluorescence, no detergent
In short: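 Purified cruzain at 1.5 nM, pre-incubated 15 min with compound at room temperature in 100 mM sodium acetate pH 5.5, 5 mM DTT, 0.00005% Triton X-100. Reaction started with 2 uM Z-FR-AMC; AMC fluorescence increase over 60 s gives rate.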
Potency is the fitted concentration of half-maximal effect; tags give direction and shape of the fitted curve.

SMILES	Potency	max response, negative = inhibition
O=S(=O)(Nc1ncnc2sc3c(c12)CCC3)c1ccc2ccccc2c1	active: 31.6 µM	–
COc1ccccc1-c1nc(CNC(=O)Nc2ccccc2)c(C)o1	–	inactive: 0.517%
O=C1C=C(c2ccccc2)CC(c2cccs2)C1n1cnc([N+](=O)[O-])c1 (stereo unspecified)	inconclusive: 31.6 µM [inhibitor, single point]	–
COc1cc(-c2cc(OC)c3c(C)oc(C)c3c(=O)c2)ccc1OC(=O)c1ccccc1F	inconclusive: 39.8 µM [activator, single point]	–
CCCN(CCC)c1nc2ccccc2nc1C(C#N)C(=O)OCCOC (stereo unspecified)	inconclusive: 39.8 µM [activator, single point]	–
COc1ccc(S(=O)(=O)N2CCCC2C(=O)Nc2nnc(-c3cccnc3)s2)cc1 (stereo unspecified)	inconclusive: 25.1 µM [inhibitor, single point]	–
O=C1CC(N(CCc2ccccc2)C(=S)Nc2cc(Cl)ccc2Cl)C(=O)N1c1c(Cl)cccc1Cl (stereo unspecified)	active: 12.6 µM	–
COc1ccc(-c2ccc(CCC(=O)O)n2CC(=O)Nc2cccc(C(F)(F)F)c2)cc1	–	inactive: -7.09%
CCOC(=O)c1c(CN2CCOCC2)n(-c2ccccc2)c2cc(Br)c(O)cc12	inconclusive: 39.8 µM [activator, single point]	–
CCc1ccc(-n2c(=O)c3cccnc3n2CC(=O)Nc2ccccc2C(F)(F)F)cc1	inconclusive: 31.6 µM [inhibitor, single point]	–
O=c1ccn(C2OC(COP(=O)(O)OP(=O)(O)OP(=O)(O)O)C(O)C2O)c(=O)[nH]1 (stereo unspecified)	–	inactive: -6.31%
Cc1ccc(C(=O)Nc2ccc3oc(-c4ccncc4)nc3c2)c(Cl)c1	–	inactive: -2.83%
COC(=O)c1cc(NS(=O)(=O)c2cc(Br)cc3c2N(C(C)=O)CC3)cc(C(=O)OC)c1	–	inactive: 12.8%
c1cncc(CNc2cc(-c3ccoc3)ncn2)c1	–	inactive: 0.397%
CCc1ccc(-n2c(SCc3cccc(F)c3)nc3[nH]ncc3c2=O)cc1	–	inactive: 7.52%
O=C(Nc1ccc(N2CCN(C(=O)c3ccccc3)CC2)cc1)c1ccc(Br)o1	inconclusive: 15.8 µM [inhibitor, partial curve, poor fit]	–
Cc1ccc(-n2[nH]c(C)c(C=Nc3ccc(S(=O)(=O)Nc4nccs4)cc3)c2=O)cc1	inconclusive: 39.8 µM [activator, single point]	–
CC1(C)CC(=O)C2=C(C1)N(Cc1ccc(F)cc1)C(=O)C2(NC(=O)c1cccnc1)C(F)(F)F (stereo unspecified)	inconclusive: 31.6 µM [activator, single point]	–
Cc1ccc(NC(=O)CCS(=O)(=O)c2cc(Br)cc3c2N(C(=O)C2CC2)CC3)cc1	–	inactive: 12.8%
O=C(CNC(=O)c1ccccc1F)OCC(=O)N1CCCCC1	inconclusive: 12.6 µM [inhibitor, partial curve, poor fit]	–
O=C(CSc1oc(-c2ccccc2)nc1S(=O)(=O)c1ccccc1)c1ccccc1	inconclusive: 39.8 µM [inhibitor, single point]	–
Cc1c(C(=O)Nc2ccc(Cl)cc2)c2ccccn2c1C(=O)c1ccc(F)cc1	inconclusive: 39.8 µM [inhibitor, single point]	–

SMILES	Potency	max response, negative = inhibition
CCCCCOC(=O)C1[C@H]2C(=O)N(CCCOC)C[C@]23C=C[C@H]1O3 (stereo partly specified)	inconclusive: 31.6 µM [activator, partial curve]	–
CC(NC(=O)C1CCN(S(=O)(=O)c2ccc3nc4c(c(C(=O)O)c3c2)CCCC4)CC1)c1ccccc1 (stereo unspecified)	inconclusive: 39.8 µM [activator, single point]	–
CCN(CC)S(=O)(=O)c1cccc(-c2nc3n(n2)Cc2ccccc2-3)c1	inconclusive: 31.6 µM [activator, single point]	–
C=C(CO)C1Cc2c(ccc3c(=O)c4c(oc23)COc2cc(OC)c(OC)cc2-4)O1 (stereo unspecified)	inconclusive: 31.6 µM [activator, partial curve]	–
O=C(c1cn(-c2ccccc2)nc1-c1ccccc1)n1nnc2ccccc21	inconclusive: 31.6 µM [inhibitor, single point]	–
Cc1nn(CC(=O)N2CCCCC2)c(=O)c2cc3occc3n12	–	inactive: 1.36%
O=C(/C=C/c1ccc(Cl)cc1)NCc1ccncc1	inconclusive: 0.199 µM [activator, single point]	–
CC(C)(C)c1ccc(C(=O)OC/C(O)=C(\C#N)c2nc3ccccc3s2)cc1	active: 25.1 µM	–
Cc1ccc(-n2c3nc(=O)[nH]c(=O)c-3cc3c(C)nn(-c4ccccc4)c32)c(C)c1	inconclusive: 39.8 µM [inhibitor, single point]	–
Cc1ccc(CN(Cc2ccco2)c2cnc(S(C)(=O)=O)nc2C(=O)Nc2ccccc2Br)o1	inconclusive: 31.6 µM [inhibitor, single point]	–
Cc1ccccc1C(=O)NNC(=O)C(=O)Nc1cccc(Cl)c1C	inconclusive: 39.8 µM [inhibitor, single point]	–
O=C(CSc1nc2cc(S(=O)(=O)N3CCOCC3)ccc2o1)NC1CCCc2ccccc21 (stereo unspecified)	active: 25.1 µM	–
COc1ccc(N(C)C(=O)c2cc(S(=O)(=O)N3CCc4ccccc43)cn2C)c(OC)c1	–	inactive: -6.74%
CCc1ccc(C2CC(=O)Oc3c2c(=O)n(C)c2ccccc32)cc1 (stereo unspecified)	–	inactive: 5.56%
COc1ccc(/C=C/C(=O)NCC(=O)N/N=C/c2cc(Br)ccc2OCc2ccccc2)cc1	active: 6.31 µM	–
CCOC(=O)c1c(-c2ccc(-c3ccccc3)cc2)csc1NC(=O)CCN1CCOCC1	inconclusive: 31.6 µM [activator, single point]	–
Cc1cccc(Nc2nnc(SCC(=O)Nc3cccc(S(=O)(=O)N4CCCCC4)c3)s2)c1	active: 12.6 µM	–
Cc1cc2c(cc1C)NC(=O)CC(C(F)(F)C(F)(F)C(F)(F)F)=N2	inconclusive: 39.8 µM [inhibitor, single point]	–
O=C(CCc1nc2ccccc2c(=O)[nH]1)OCc1ccc(-c2ccccc2)cc1	inconclusive: 31.6 µM [inhibitor, single point]	–
CSc1ccc(C(c2c(O)c3ccccc3oc2=O)c2c(C)n(C)n(-c3ccccc3)c2=O)cc1 (stereo unspecified)	inconclusive: 31.6 µM [inhibitor, single point]	–
O=C(Nc1ccc2c(c1)nc1n2CCN(Cc2ccccc2)C1)c1cccs1	inconclusive: 31.6 µM [inhibitor, single point]	–
CCN1CCN(C(=O)c2cn(CCOC)c(=O)c3c2c2ccccc2n3C)CC1	–	inactive: 1.67%

SMILES	Potency	max response, negative = inhibition
COc1ccc(N2CCN(Cc3nc4c(c(=O)n(C)c(=O)n4C)n3C(C)C(C)=O)CC2)cc1 (stereo unspecified)	inconclusive: 39.8 µM [activator, single point]	–
CCOC(=O)c1cc(-c2ccc(OC(F)F)cc2)nc2c1c(=O)[nH]c(=O)n2C	inconclusive: 5.01 µM [activator, full curve]	–
Cc1ccnc(NS(=O)(=O)c2ccc(N=[N+]=[N-])cc2)n1	–	inactive: -2.81%
Fc1ccc(Br)cc1C1C=C(c2ccc(Br)cc2)Nc2nnnn21 (stereo unspecified)	–	inactive: 1.83%
O=C1/C(=C/c2ccco2)CCc2ccccc21	active: 2 µM	–
CCc1noc(C)c1C(=O)Nc1nc(-c2ccc(Cl)cc2Cl)c(C)s1	inconclusive: 39.8 µM [inhibitor, single point]	–
CCCC(=O)NCCc1nc2ccccc2n1C	inconclusive: 15.8 µM [inhibitor, partial curve]	–
Cc1cc(C)cc(NC(=O)C2CCN(S(=O)(=O)c3cccc(-c4noc(C)n4)c3)CC2)c1	–	inactive: 6.39%
Cc1ccc(S(=O)(=O)N(C)c2cc(S(=O)(=O)N3CCC(C)CC3)c(C)cc2C)cc1	–	inactive: -3.5%
O=CN/C=C/c1cc(F)cc(F)c1F	–	inactive: 9.12%
COc1ccccc1NC(=O)C1=C(C)Nc2nc(-c3cccs3)nn2C1c1cccnc1 (stereo unspecified)	active: 15.8 µM	–
Cc1ccc(-c2cn(-c3ccc(Cl)cc3)c(S(=O)(=O)CC(=O)Nc3ccccc3)n2)cc1	active: 15.8 µM	–
Cc1ccc(N2C(=O)c3ccc(C(=O)N4CCN(c5cccc(C)c5C)CC4)cc3C2=O)cc1	inconclusive: 39.8 µM [inhibitor, single point]	–
N#Cc1cc(-c2ccccc2)nnc1Sc1ccccc1	active: 25.1 µM	–
COc1ccc(NC(=O)CC2C(=O)N(c3cccc(OC)c3)C(=O)N2Cc2ccc3c(c2)OCO3)cc1 (stereo unspecified)	–	inactive: 2.06%
O=C(CNC(=O)c1ccc(-c2ccccc2)cc1)OCc1ccc(Br)cc1	inconclusive: 39.8 µM [inhibitor, single point]	–
COc1ccc2oc(-c3cccc(NC(=O)c4sc5c([N+](=O)[O-])cccc5c4Cl)c3)nc2c1	–	inactive: 15.2%
CN1c2ccccc2C(C)(C)C12CC(c1cccc(S(=O)(=O)N3CCCC3)c1)=NO2 (stereo unspecified)	inconclusive: 39.8 µM [inhibitor, single point]	–
O=C(CCC(=O)Nc1ccccc1)N/N=C/C=C/c1ccccc1	inconclusive: 39.8 µM [inhibitor, single point]	–
CCOc1ccc(S(=O)(=O)NCCc2sc3nc(-c4ccc(C)cc4)nn3c2C)cc1	inconclusive: 25.1 µM [activator, single point]	–
CC(C)C(C(=O)O)N1C(=O)/C(=C/C=C/c2ccco2)SC1=S (stereo unspecified)	inconclusive: 25.1 µM [activator, single point]	–
Cc1cc(C)c2oc(C(=O)Nc3ccc(S(=O)(=O)Nc4nccc(C)n4)cc3)cc(=O)c2c1	inconclusive: 3.16 µM [activator, single point]	–
